Reference: the supplement of paper PMC11417369
Some of the results follow.

What follows are sequences tested on PfSIP2 AP2 domain 1 (GST-tagged) (assay: gcPBM binding intensity (ln(normalized median fluorescence intensity)); higher = stronger DNA binding).
Summary of the method: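 Binding intensity is the highest Masliner-normalised natural-log median intensity over replicate spots in either probe orientation. To obtain it, GST-tagged P. falciparum DNA-binding domains made in E. coli were incubated for 1 h on an Agilent 4 × 180k array of primer-extended double-stranded 36-bp intergenic genomic probes plus negative controls. Detection used Alexa488 anti-GST antibody with scanning at 488 nm.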

Sequence	gcPBM binding intensity (ln)
ATTTAAAAGTTGGTAGTGCATTAAAAATAACAAAAA [GTGCAC_site9835]	8.96
TTCCCTTATTTTGTATGTACACAATTTATCATGTTG [XGTACX_site2896]	7.18
ATATATATATATGCATGTACATATATTTGTTATATC [XGTACX_site3197]	9.3
AATAGATATATAAATACACACAAACATACCTATATA [CACACA_site7823]	6.86
AAACAAAGGGAACATGTGCACTTACAAAAAAAAAGA	9.49
TCACACCTTTTTGGTTGTACTTAAATTTCTTTTTTT [XGTACX_site6438]	7.03
ATTTATTTTAATTTTTTTTTTTCTCTTTTGGATCTA [CACACA_negctrl_site1408]	6.56
TGTAATATGAAATGTGTACACACGCACCCACAAAAA [CACACA_site8948]	10.9
TTCTCAAAGTTTACGTGTACATAAATTATATAAATG [XGTACX_site2622]	7.23
ATTAGGCATATTTTCTGTACACAATAATAAAAAAAA [XGTACX_site3957]	7.42
AATGAATTTAATTCTACTATTTTTTTTTTAAATATT [XGTACX_negctrl_site296]	6.63
TAGTAAAAGATATACACACACCAAAAAATATAATTA [CACACA_site7142]	6.99
TATATATGGGTACTAATTCCTTTAATTTCTTTAATT [CACACA_negctrl_site949]	6.82
AATTATATTCAAAATGGTACACACAATATTTAATTG [XGTACX_site5521]	6.93
AAAAAAAAATTAGGGGTGCCATTTGCTGCTGTGCTT [GTGCAC_site9913]	8.6
TTTTGTATTTCTCACACACACATAAGTAAACAATAA [CACACA_site5105]	7.32
ATTAATATGAATAAAACACACATATATAACTTGTAA [CACACA_site6989]	6.79
AATTATACTCACGTTACACACACACTATAAATATAT [CACACA_site7863]	7.48
AAAAATTTGGCATACACACACACACGCACACGCACA [CACACA_site6422]	8.03
CCTATAAAACCATATACACACATATAAATAAAAAAA [CACACA_site7809]	7.14
TAAACTATATTTACATGTACATATAATATTAAATAA [XGTACX_site3528]	7.09
TATTACATTATTCAAAAAAATTTATATGGTTATAGG [CACACA_negctrl_site1657]	6.86

Sequence	gcPBM binding intensity (ln)
TGATAATAAGCATACACACACACACCCAAAAAAAAA [CACACA_site721]	7.17
AACTAAATGTTATTCGCACACGGAATTTATTTAATG [CACACA_site3664]	6.91
AAATAAAAAAAAAAAAAAAATAACTTAAATGGGATA [TGCATGCA_negctrl_site595]	6.62
TTTTTTTTTTCTTTTTTTCTCATGAAATTCTAAATG [CACACA_negctrl_site918]	7.05
ATATATATATATATATATATATATATGATTATTACT [GTGCAC_negctrl_site109]	9.39
AAAATTCAGCGAAAGGGTACATATGTGTAAGGGTAA [XGTACX_site8205]	7.16
TATATTTATATACCAACACACATACATATTTATATA [CACACA_site6931]	6.93
CTATTATATCAGTAGACACACATATAACATTTATAT [CACACA_site141]	7.23
ATCTTATATTATCACACACACACGCACAAAACAGAA [CACACA_site1463]	7.79
TTTATTAAACTTGACACACACACACCCACATATATA [CACACA_site760]	7.29
ATATTATATAGAAACACACATACACATGTAAATATA [CACACA_site2037]	6.98
ATGGATTTTACCATAGCACACATATATGAATATTTT [CACACA_site8535]	6.88
ATATAGAAAATGCATACACACTTTATATATATATTT [CACACA_site4658]	6.89
TAATTATTTCGTATATTTGAATGGTACATGCTTATA [CACACA_negctrl_site1178]	6.92
AATGTGCTCGCTATTACACACTCATTGGGATAAAAT [CACACA_site8627]	6.91
AGTAACAATTATTATGCATGTACAAATAATCATTTT [TGCATGCA_site867]	6.98
TATATATATTTTTGAAGTACTTATTACACTAGCATT [XGTACX_site8965]	7.31
AAGAAAATATAACAAAGTAAAAACATATTATATATA [TGCATGCA_negctrl_site248]	6.62
ATATATATATATATATGTACATATATTTTCTTTTTG [XGTACX_site6017]	9.7
TTGTTCTATAATTATACATGCATTAACAGAGTAAAA [TGCATGCA_site909]	7.61
AAAAACGATTAATGTGTACACACATAGTTATAAACA [CACACA_site8659]	6.9
TTTTTTTTTTTTTAATGTACAAATATGGTGACAAAA [XGTACX_site8709]	7.31

Sequence	gcPBM binding intensity (ln)
AGGATAACATACAAAAGTACATAAAACTAAAAAAAC [XGTACX_site26]	7.32
TGGGAATAACGACACACACACACACGGATATAAATA [CACACA_site7633]	7.13
TATATTTTGTTTTTGTGTACATATTGGTAGTTATTT [XGTACX_site7659]	7.21
AAAAATAGTCTTCTTGCACTTTTTAATTTATTTTAA [CACACA_negctrl_site1322]	7.29
TGATTATCCTATATATATTTCATAATGGAAAAAAAT [TGCATGCA_negctrl_site444]	7.04
AATGTGGTATTTACAAAAAGGCTTTATACTTAAAAA [XGTACX_negctrl_site566]	7.08
CTTTTCATCTTCTTAACACACAAAAAAAAAAAAAAA [CACACA_site3886]	7.39
CTTTTTATTAAATATGCATGTGTATCAACAGTGAAT [TGCATGCA_site447]	7.31
GTTATACGCATATATACACACATATGTAAATATATA [CACACA_site3280]	7.17
TAAAAAAAATAGCATACACACATATATACCTATATA [CACACA_site4535]	6.79
ATCATAACACCTCCACACAAATAAATATAACATATA [XGTACX_negctrl_site269]	7.34
ATGAGTGCACAAATATATATATATATATATATATAT [CACACA_negctrl_site404]	11.6
CATACACCCGGACACACACACACACCCATATATAAT [CACACA_site4494]	7.36
TTGTTTTTTTCTTTTTGTACATATACAACATACATA [XGTACX_site8996]	7.21
AAACAATTTATGTGTAGTACATGTTGGAGATAATTT [XGTACX_site6000]	7.22
GAAAATATATTATTTACACACATGTTCAAATTAAAA [CACACA_site3761]	6.85
TATTAAATATAAGTCACACATAATTTTTCGTCCTTT [CACACA_site5065]	6.79
ATATATATATATACAACACACATGTAATATATAAAT [CACACA_site3294]	9.24
TACTGATCCACATTTATACACACCTCGGTTTGTAGA [CACACA_site417]	6.89
TTTTTAAATATATAATAGAATTGATTGTATTATATA [CACACA_negctrl_site196]	6.64
TATAGATTCTTTTAATGTACATGTCTTTTCATTTCC [XGTACX_site8348]	7.1
TTGTGTTCTTATTTTTACACCGAAAAATATTAAAAG [CACACA_negctrl_site535]	7.41

Sequence	gcPBM binding intensity (ln)
CCTTTATACATTTTCTGTACTGATATATATTAAAAA [XGTACX_site8467]	7.44
GTATGAAAAAAAATATGTACACATATATATTTGGTA [XGTACX_site6309]	7.07
ATATAAAAAAAAAAAAAAAAATATATATATATATAT [GTGCAC_negctrl_site251]	9.67
TTGGTTTGAAAGAAAGAAATTATTAAAAAGGAAATA [CACACA_negctrl_site26]	6.72
GATATACTGTCAATTCTACACACCATAGGGGGAGCA [CACACA_site8562]	8.06
ATATATTTATTAAGGTGTACAAAAATTATGTTGCAT [XGTACX_site7546]	7.16
TATTTTATCTAAGGATGTACATTATTAAGAAAATGT [XGTACX_site6123]	7.03
TAGAAATATAATTAATGTACATATGATATTATATAT [XGTACX_site923]	6.97
ATTTATTTATATAGAAGTACATATTTATTTATATAT [XGTACX_site6283]	6.99
CTTTTTTAAATTATTGCACACAAAAATGAAAGGAAA [CACACA_site8412]	7.25
ACATCAAGCAGACACACACACACACCCACCCACCGA [CACACA_site371]	7.1
TAATAAAAGATATATACACACAAATAAATAAATAAA [CACACA_site7818]	7.08
AAAAAAAAATATATATATATATATATAAATAAATTT [CACACA_negctrl_site519]	7.45
ATAATATAAACATATTGTACACATATATTGCTATTT [XGTACX_site2799]	7
AAATATAAAAAAAATATATAATTTTTACATCGAATT [CACACA_negctrl_site544]	6.81
TTCTATGAATTCATAGTGCAAATGAGTTATTTTTTC [GTGCAC_site9709]	7.41
TTATTATTGTTATGTTGTACTTTTACAAACTTTTTG [XGTACX_site8797]	7.15
AAGAAAATAGGGTTCATAGGATTATACTTTTGGAAT [TGCATGCA_negctrl_site80]	6.61
TCGTTTCCTTAAAATTGTACTTTTTTTTTTTTTTTT [XGTACX_site64]	7.63
TATTATAAAGAAATTACACACATGCAATGAAAAAAA [CACACA_site1697]	6.88
AGAGTATATATATATGCATGCATATCTCATATTTAT [TGCATGCA_site509]	7.07
